Experiment [1] has as its system KB-3-1. The experiment in a line: growth inhibition relative to DMSO control (SRB); cervical cancer cells: KB-3-1 is the parent and KB-V1 overexpresses MDR1; SRB is the sulforhodamine B stain; higher = more growth inhibition. The note with it: 1 µM; 72 h.
Experiment [2] concerns KB-V1. Described as above. As to conditions: 1 µM; 72 h.

The results in this text go back to the supplement of paper PMC7266297.

Where a name gives a salt, the structure may show the parent alone. Some of the results follow. Many values rest on one well or one pass, so single values are uncertain.
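Note: Read-out is SRB optical density at 490 nm, with the control being wells given 0.5% DMSO vehicle, and compound added one day after cells were plated.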

`O=C(O)CCCc1ccccc1` [Sodium Phenylbutyrate]: the growth inhibition in experiment [1] worked out at 8.08%; in experiment [2], 18.3%.
`O=C(CSc1nc2c(c(=O)n1-c1ccccc1)SCC2)Nc1ccc(-c2ccccc2)cn1`: the values for the growth inhibition in experiment [1] and in experiment [2] were 20.6% and less than 0%, respectively.
In the case of `Cc1nc(C(=O)NCC(=O)O)c(O)c2ccc(Oc3ccccc3)cc12`, the results for the growth inhibition in experiment [1] and in experiment [2] were 39.9% and 37.6%, respectively.
With `CN(C)CCN1C(=O)c2cccc3cc(N)cc(c23)C1=O` [Amonafide], the results for the growth inhibition in experiment [1] and in experiment [2] were 71.3% and 67.2%, respectively.
The corresponding values for `CCOc1cc(N)c(Cl)cc1C(=O)NCC1CN(Cc2ccc(F)cc2)CCO1` (stereo unspecified) [Mosapride Citrate] are 11.8% and 37.5%.
For the molecule `Cc1c(CN2CCN(C(=O)[C@H](C)O)CC2)sc2c(N3CCOCC3)nc(-c3cnc(N)nc3)nc12`, the growth inhibition in experiment [1] worked out at 85.2%; in experiment [2], 80.7%.
Regarding `CC(C)c1cc(C(C)C)c(CC(=O)NS(=O)(=O)Oc2c(C(C)C)cccc2C(C)C)c(C(C)C)c1` [Avasimibe], the growth inhibition in experiment [1] and in experiment [2] was less than 0% throughout.
`Cc1ncc(-c2ccnc(Nc3ccc(S(C)(=O)=O)cc3)n2)n1C(C)C`: the growth inhibition is 61.7% in experiment [1] and 13.8% in experiment [2].
On to `C[C@H](N[C@@H](CCc1ccccc1)C(=O)O)C(=O)N1CCC[C@H]1C(=O)O` [Enalaprilat Dihydrate], for which the growth inhibition is 25.6% in experiment [1] and 12.8% in experiment [2].
The like results for `O=P(O)(O)C(O)(Cn1ccnc1)P(=O)(O)O` [Zoledronic Acid] were, in that order, 13.5% and 38.3%.
The corresponding values for `COc1cc2c(Oc3ccc4[nH]c(C)cc4c3F)ncnc2cc1OCCCN1CCCC1` [Cediranib (AZD2171)] are 35.9% and 42.5%.
With `CC(C)c1cc(-c2ccc(F)c3ccccc23)nc(N)n1`, the growth inhibition in experiment [1] and in experiment [2] was less than 0% in each case.
Take `CCCC(CCC)C(=O)O` [Divalproex Sodium]: the growth inhibition was found to be 48% in experiment [1] and 19.4% in experiment [2].
